Data as given in the supplement of paper PMC3334620.
In all, about 33,000 sequences were measured (“E-score (-0.5 to 0.5)”: median about -0.054, highest 2% from about 0.35 on). Some of the results follow.

Target: T1, Stb5 (UniProt P38699)
T1 sequence: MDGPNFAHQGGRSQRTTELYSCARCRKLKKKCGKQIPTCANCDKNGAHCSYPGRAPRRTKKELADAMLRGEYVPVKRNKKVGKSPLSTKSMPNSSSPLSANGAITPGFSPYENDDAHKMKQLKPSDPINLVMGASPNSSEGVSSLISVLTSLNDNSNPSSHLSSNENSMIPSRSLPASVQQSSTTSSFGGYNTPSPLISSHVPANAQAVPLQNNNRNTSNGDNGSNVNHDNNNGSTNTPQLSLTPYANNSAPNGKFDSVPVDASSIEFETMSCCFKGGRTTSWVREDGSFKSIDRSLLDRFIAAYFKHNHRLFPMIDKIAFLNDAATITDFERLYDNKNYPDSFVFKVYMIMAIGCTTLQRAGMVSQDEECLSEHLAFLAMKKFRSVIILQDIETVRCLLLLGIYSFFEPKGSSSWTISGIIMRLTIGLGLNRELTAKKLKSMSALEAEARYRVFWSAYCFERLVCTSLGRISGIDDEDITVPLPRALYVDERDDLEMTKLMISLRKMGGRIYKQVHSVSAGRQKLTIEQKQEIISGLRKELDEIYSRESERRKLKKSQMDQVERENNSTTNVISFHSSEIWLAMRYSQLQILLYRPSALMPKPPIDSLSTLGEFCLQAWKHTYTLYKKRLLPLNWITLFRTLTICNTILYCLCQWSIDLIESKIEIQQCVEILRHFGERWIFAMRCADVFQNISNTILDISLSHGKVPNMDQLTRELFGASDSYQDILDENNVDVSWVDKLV
Experiment: PBM E-score (8-mer binding enrichment) (E-score (-0.5 to 0.5)); higher = stronger / more preferred TF binding; most listed sequences are background and not binding sites
Conditions: protein concentration: 200 nM; construct: GST-full length
Procedure, shortened: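 Yeast transcription factors carrying a GST tag, as full-length proteins or DNA-binding domains, were produced by PURExpress in vitro transcription/translation. About 100-200 nM protein was applied to universal all-10-mer Agilent arrays, double-stranded by primer extension on fresh or once-stripped slides. Bound protein was detected with fluorescent anti-GST, and scans were normalised with masliner. The Universal PBM Analysis Suite gave each ungapped eight-base word, pooled with its reverse complement, an E-score, a modified Wilcoxon-Mann-Whitney statistic.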

Row | Sequence | PBM E-score
1 | AAATGTCA | 0.054
2 | GAGAGTGA | -0.349
3 | CATTCCAA | -0.208
4 | CGCCAGAA | 0.053
5 | CTAGAAGA | -0.173
6 | ACCGGCCC | 0.336
7 | AAGCTCCA | -0.0231
8 | TTAGGAAA | 0.0483
9 | CGGGTATC | -0.0268
10 | GCGGTCGA | 0.0836
11 | AGGAATAC | 0.0242
12 | TGGGGCAA | -0.247
13 | CATAAAGC | -0.0703
14 | GGGTTATA | 0.257
15 | ATACACAG | -0.113
16 | ATATTTAG | -0.0484
17 | GATCCGGA | 0.227
18 | ATACGGCG | 0.236
19 | AATTTCGC | -0.0602
20 | ATAGCATC | -0.0173
21 | ACACGGCT | 0.0007
22 | AATTGCTG | -0.056
23 | ATACCAAC | 0.0376
24 | CATACGCG | -0.0103
25 | GCCATGAA | -0.24

Row | Sequence | PBM E-score
26 | CCCTTGCA | -0.16
27 | GGAGACGA | -0.0527
28 | GTCAGACA | -0.0898
29 | ATGCGGCC | 0.119
30 | CGGCCACC | 0.104
31 | GCATCGAC | -0.101
32 | TAACCCCA | 0.195
33 | CCAATGAC | -0.105
34 | ATCAGCTG | -0.038
35 | CCAGGCGA | -0.315
36 | GATCGTTA | -0.0591
37 | CACCAGAA | -0.107
38 | TCCTAAAA | 0.0507
39 | GATGACGA | -0.302
40 | AGGACACA | -0.108
41 | CTTCCGAA | 0.27
42 | AGGAATCA | -0.082
43 | AGCCCTGA | -0.144
44 | GAGTCGTA | -0.223
45 | ACTGAATC | -0.0294
46 | GGCCCGTA | 0.226
47 | AATTCTAT | -0.282
48 | CCTTTGCG | 0.03
49 | GTTGTGTA | -0.145
50 | CTTGTATA | 0.0149

Row | Sequence | PBM E-score
51 | CCACCCCC | -0.037
52 | CAAGAAAG | -0.0704
53 | CCAATCAC | -0.157
54 | TCCCGGCA | 0.243
55 | TCTAACAA | -0.148
56 | AGGAACCA | -0.14
57 | ATGTGCTG | -0.162
58 | AGTACTGC | -0.144
59 | GTCTGTGA | -0.203
60 | GAAAATCA | 0.0921
61 | CAGGACAA | -0.122
62 | CCGGCCGC | 0.211
63 | CCGTACGA | 0.0295
64 | AGTCATGC | -0.14
65 | CCCACGTA | -0.253
66 | CTTCACCA | -0.194
67 | AGGAAATA | 0.00598
68 | ACACTCAG | -0.227
69 | AATTGTAT | -0.223
70 | CACTTCCC | -0.0823
71 | ATTTTGGA | 0.14
72 | TGTCAAAA | 0.00068
73 | ACAGTGTC | -0.0649
74 | CTCTAGGA | -0.27
75 | CTGAAATC | -0.172

Row | Sequence | PBM E-score
76 | AAAAAAGG | -0.0775
77 | AGGATATC | -0.0575
78 | ATAGTCAC | -0.0899
79 | AGTGTCCG | 0.233
80 | ATCCGGGA | 0.0192
81 | GCTCTGAA | -0.166
82 | ACGGTAAC | 0.238
83 | AAGGTCCC | -0.236
84 | CTTGATCA | -0.208
85 | CAGACCGA | 0.174
86 | ACGAATCT | -0.0809
87 | GCCACAAA | -0.00122
88 | CGATTCAA | -0.0358
89 | CATGTGGA | -0.218
90 | ATCACACC | 0.274
91 | GGGCTCAC | 0.0952
92 | AGACGAAC | -0.397
93 | ACCAGGTC | -0.0527
94 | CTCTACAC | -0.106
95 | CCTGCAAC | -0.128
96 | ATACAGGC | -0.176
97 | ATTAAATA | 0.058
98 | AGATGTAC | -0.161
99 | ATTATCAG | 0.0804
100 | CGATGAGA | -0.024

Row | Sequence | PBM E-score
101 | AGGGTAAC | -0.0108
102 | CCTATGTA | -0.0975
103 | GTATAGAC | -0.0584
104 | AGCAGGTA | -0.191
105 | CAAACCGG | 0.211
106 | CGCAAACG | 0.0438
107 | ACCAAGGC | 0.0686
108 | CGGCGCTA | 0.447
109 | GCAGATGA | -0.254
110 | AATTGCTA | -0.0566
111 | CTCCTCCC | -0.231
112 | ACCCCCGT | 0.365
113 | CCTTACGC | -0.11
114 | AATTACTA | 0.0188
115 | CATATTAC | 0.225
116 | GCTGAAAC | 0.0803
117 | AGTTGCTG | -0.167
118 | CATACTCC | 0.0644
119 | CGCATAAG | 0.138
120 | AAGATACG | -0.0742
121 | AATGCTGG | -0.101
122 | ACGGGGCA | 0.159
123 | AGACTCGC | -0.209
124 | CCCGCGGA | 0.322
125 | ATTCTGGG | -0.294

Row | Sequence | PBM E-score
126 | AAACCAAG | -0.116
127 | GACAGCTA | -0.221
128 | ATGAGTCG | -0.153
129 | AGGACGTA | -0.182
130 | GGTCGGAA | 0.251
131 | AAAACAGG | -0.204
132 | CAGTCAAC | -0.188
133 | ATGCACAG | -0.234
134 | AATGTCAA | -0.134
135 | AGACAACC | 0.0442
136 | CAGTTTTC | -0.207
137 | AGCCTGAG | -0.266
138 | CATTAAGA | -0.122
139 | TATGCAGA | -0.106
140 | GGGCTCTA | -0.028
141 | AGCAGCCC | -0.196
142 | ACATAAAG | -0.0845
143 | CCCATCGA | -0.0921
144 | CGATACCG | 0.242
145 | AAGTAGGA | -0.333
146 | ACAGGTTC | -0.29
147 | ACTTGCTA | -0.204
148 | GTAAGTGA | -0.111
149 | CGATATGA | -0.0444
150 | AACTTCAG | -0.178

Row | Sequence | PBM E-score
151 | AGGAGTTC | -0.17
152 | GTGATTGA | 0.111
153 | CGCAAACC | -0.0638
154 | GGTTGAAA | -0.0535
155 | AAGTGTAC | -0.243
156 | AAACCCGA | 0.395
157 | ACCTGCTG | -0.155
158 | AAGGAAGA | -0.0247
159 | CCCATGTA | -0.0266
160 | CGCGAGAC | -0.22
161 | AGGCATGC | -0.15
162 | GGCCTCTA | -0.0646
163 | GAGATAGA | -0.0381
164 | TCCATGGA | 0.0702
165 | AAATGCAC | -0.00345
166 | TATGCCCA | -0.123
167 | ATCAAGTG | -0.117
168 | TAGTGTAA | -0.0184
169 | CCATATTA | -0.102
170 | CCCTGAGC | -0.0481
171 | ACTTCACC | 0.063
172 | AGCTTATA | -0.0809
